Test results taken from publication PMC4336329 (PLoS ONE, 2015).
About 2,200 (0.71%) of roughly 310,000 compounds showed an effect of 50% or more. The effect is printed as a negative number. The list shows a part of the results.

Molecular target: human ether-à-go-go-related gene (hERG) potassium channel (human, UniProt Q12809)
Assay: primary screen, population patch clamp on CHO cells stably expressing hERG

Chain of human ether-à-go-go-related gene (hERG) potassium channel (Q12809 whole entry, looked up): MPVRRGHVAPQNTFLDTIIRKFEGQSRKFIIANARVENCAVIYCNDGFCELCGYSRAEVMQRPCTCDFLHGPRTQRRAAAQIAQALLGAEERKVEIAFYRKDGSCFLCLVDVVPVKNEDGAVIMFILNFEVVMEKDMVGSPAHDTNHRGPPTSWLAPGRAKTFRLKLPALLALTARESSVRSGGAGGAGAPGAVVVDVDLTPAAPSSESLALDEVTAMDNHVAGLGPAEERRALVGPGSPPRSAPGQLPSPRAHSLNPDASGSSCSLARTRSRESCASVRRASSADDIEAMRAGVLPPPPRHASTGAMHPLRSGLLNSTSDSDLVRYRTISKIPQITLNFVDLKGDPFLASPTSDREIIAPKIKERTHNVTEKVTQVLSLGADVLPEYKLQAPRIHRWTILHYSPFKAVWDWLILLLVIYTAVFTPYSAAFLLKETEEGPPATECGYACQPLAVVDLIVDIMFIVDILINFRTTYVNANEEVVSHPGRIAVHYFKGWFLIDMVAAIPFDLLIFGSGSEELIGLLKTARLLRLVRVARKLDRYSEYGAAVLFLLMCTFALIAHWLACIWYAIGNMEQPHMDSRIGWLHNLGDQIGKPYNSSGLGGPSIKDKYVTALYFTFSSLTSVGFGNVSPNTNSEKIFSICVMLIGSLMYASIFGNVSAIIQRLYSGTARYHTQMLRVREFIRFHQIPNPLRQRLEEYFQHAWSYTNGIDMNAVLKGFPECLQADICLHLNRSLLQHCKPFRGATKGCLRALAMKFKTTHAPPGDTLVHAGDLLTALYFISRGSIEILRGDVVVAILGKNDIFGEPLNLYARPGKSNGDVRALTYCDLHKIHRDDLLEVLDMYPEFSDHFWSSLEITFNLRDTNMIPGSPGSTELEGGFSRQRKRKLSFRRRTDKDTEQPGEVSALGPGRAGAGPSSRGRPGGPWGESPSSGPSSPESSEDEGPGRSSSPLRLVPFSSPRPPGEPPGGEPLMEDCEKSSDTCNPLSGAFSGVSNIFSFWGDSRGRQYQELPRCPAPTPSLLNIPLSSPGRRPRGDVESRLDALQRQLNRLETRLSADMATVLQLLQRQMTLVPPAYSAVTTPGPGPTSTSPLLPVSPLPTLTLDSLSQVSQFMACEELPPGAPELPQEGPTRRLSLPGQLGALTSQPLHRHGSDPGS

Row | SMILES | hERG current change (%, negative = inhibition) at 1uM [%]
1 | CC(=O)NC12CC3CC(C1)CC(C(=O)N1CCN(S(=O)(=O)c4ccc(Cl)s4)CC1)(C3)C2 | -0.504
2 | Cc1cc(C)nc(NC2=NCC(=O)N2c2ccccc2Br)n1 | 13
3 | Cc1ccc(NC(=O)C2CC(c3ccc(F)cc3)=NO2)cc1 (centres unmarked) | 18.6
4 | CN1CCN(c2nc3c(c(=O)n(C)c(=O)n3C)n2CCSc2nc3ccccc3s2)CC1 | 9.38
5 | Cc1ccc(CSc2nnc(-c3cccnc3)n2N)cc1 | 16
6 | Cc1ccc(S(=O)(=O)N(C)C)cc1NC(=O)C1CCC1 | 14.6
7 | Cc1ccn2cc(C(=O)N3CCCC(Nc4ccc(F)cc4)C3)nc2c1 (centres unmarked) | 7.29
8 | COc1ccc(N(CC(=O)N2CCCCCC2)S(C)(=O)=O)cc1Cl | 14.2
9 | Cc1ccc(S(=O)(=O)Cc2ccc(C(=O)OCc3ccccc3)cc2)cc1 | 1.1
10 | Br.CCN1CCN(CC(=O)c2ccc(OC)cc2)CC1 | 7.58
11 | O=C(CSc1cccc[n+]1[O-])Nc1ccc(C(F)(F)F)cc1[N+](=O)[O-] | 10.2
12 | C=CCOc1ccc(/C=N/NC(=O)c2cc3c(OC)cc(OC)cc3[nH]2)cc1 | 15.5
13 | C/C=C/c1ccc(OCCOc2cc(C=O)ccc2OC)c(OC)c1 | 16.5
14 | COc1ccc(CNC(=O)CN(C(=O)c2csnn2)c2ccc(C(C)=O)cc2)cc1 | 3.03
15 | CC1(C)CC(NC(=O)Nc2ccc([N+](=O)[O-])cc2)CC(C)(C)N1 | 1.68
16 | O=C(Nc1ccc(S(=O)(=O)N2CCc3ccccc3C2)cc1)c1ccccc1 | 4.74
17 | Cc1ccc(S(=O)(=O)N(C)C)cc1NC(=O)CSc1ncc(C(F)(F)F)cc1Cl | -10.5
18 | COc1ccc(-c2cc(-c3ccccc3)nc(NN)n2)cc1OC | 7.38
19 | COC(=O)c1cc(NCc2cccs2)ccc1N1CCOCC1 | 10.4

Row | SMILES | hERG current change (%, negative = inhibition) at 1uM [%]
20 | CC1CN(C(=O)CSc2nc(-c3ccccc3)cs2)CC(C)O1 (centres unmarked) | 13.2
21 | O=C(Nc1ccc(S(=O)(=O)N2CCCCC2)cc1)c1ccccc1F | 11.6
22 | C=CC[n+]1c(/C=C/c2ccc(OC(C)=O)c(OC)c2)ccc2ccccc21.[Cl-] | -0.584
23 | Cc1ccc(-c2noc(CSc3nnnn3C3CCCCC3)n2)cc1 | 10
24 | O=C(O)c1cc(S(=O)(=O)N2CCN(c3ccccn3)CC2)ccc1Cl | 12.4
25 | C[C@H](NC(=O)c1nc[nH]c1C(=O)N[C@@H](C)c1ccccc1)C(=O)OC(C)(C)C | 7.34
26 | Cc1cc(O)c(C(=O)/C=C/c2ccccc2)c(=O)o1 | 13.5
27 | CCc1nccn1S(=O)(=O)c1ccc(OC)c(C)c1C | 9.2
28 | O=C(Nc1ccc([N+](=O)[O-])cc1)c1nc[nH]c1C(=O)NC1CCCCC1 | 13
29 | CC1Oc2ccccc2C=C1/C=C1/SC(N2CCOCC2)=NC1=O (centres unmarked) | 0.416
30 | CCOC(=O)C1CCCN(C2CCN(Cc3nc(-c4ccccc4)no3)CC2)C1 (centres unmarked) | -11.2
31 | Cc1cc(-c2nnc(SCC(=O)NC3CC3)n2C(C)C)cs1 | -7.49
32 | Cc1cc(NC(=O)CCCS(=O)(=O)c2nc(-c3cccs3)cc(C(F)(F)F)n2)no1 | 7.58
33 | CCN1C(=O)N/C(=C/c2ccc(C)o2)C1=O | 10.8
34 | Cc1ccc(Oc2nc3ccccc3n3c(C)nnc23)c(C)c1 | 0.491
35 | COc1ccccc1CCC(=O)Nc1ccc(S(=O)(=O)Nc2cc(C)nc(C)n2)cc1 | 11.7
36 | CC(C)(C)c1ccc(C(=O)N2CCC(=O)N(C(COCc3ccccc3)Cc3ccccc3)CC2)cc1 (centres unmarked) | 9.25
37 | COc1ccc(C2Nc3ccccc3NC3=C2C(=O)CC(C)(C)C3)c(OC)c1OC (centres unmarked) | -1.63
38 | CCN(CC)c1ccc(N2C(=O)C3CCCCC3C2=O)cc1[N+](=O)[O-] (centres unmarked) | 14.9

Row | SMILES | hERG current change (%, negative = inhibition) at 1uM [%]
39 | Cc1ccc(-n2nc(C(N)=O)nc2-c2ccccc2)cc1 | 16.6
40 | Cc1cc(O)c(-c2cc(C(=O)Nc3ccc(S(=O)(=O)N4CCOCC4)cc3)[nH]n2)cc1C | 8.26
41 | Cc1ccc(C2(CC(=O)O)CCOC(C)(C)C2)cc1 (centres unmarked) | 11.4
42 | CC(C)(C)C(=O)Nc1c2c(nn1-c1cccc(Cl)c1)CS(=O)(=O)C2 | -5.4
43 | CCOP(=S)(OCC)Oc1nc(Cl)c(Cl)cc1Cl | 14.5
44 | COC(=O)c1cc(COc2ccc3c(c2)oc(=O)c2ccccc23)c(C)o1 | 2.66
45 | COC(=O)c1cc(CNC(=O)c2cccc(Cl)c2)ccc1OC | -4.83
46 | CCCCOC(=O)c1ccc(NC(=O)C2CCCO2)cc1 (centres unmarked) | 3.51
47 | O=C(NCCN1CCOCC1)c1cc(-c2ccccc2Cl)nc2ccccc12 | 4.98
48 | CCOC(=O)C1=C(c2ccccc2)NC(SC)=C(C#N)C1c1ccco1 (centres unmarked) | 4.4
49 | CCSc1nc2sc3c(c2c2nnc(SCC(=O)NCc4ccco4)n12)CCCC3 | 8.22
50 | Cc1cccc(C(=O)Nc2nnc(S(=O)(=O)N3CCCCCC3)s2)c1 | 5.72
51 | O=C(COc1cccc(C(F)(F)F)c1)Nc1ccc(S(=O)(=O)N2CCCCC2)cc1 | -1.57
52 | C=C1c2cc(CC)ccc2NC(=O)N1c1ccc(C)cc1 | 18.4
53 | CN1C(=O)/C(=C\C=C2/CCCN2C)N(C)C1=S | 9.99
54 | CC(=O)N1CCN(C(=O)c2ccc3c(c2)S(=O)(=O)c2ccccc2C3=O)CC1 | 12.4
55 | O=C(C1CCCN(S(=O)(=O)c2ccc(Cl)cc2)C1)N1CCCC1 (centres unmarked) | -1.98
56 | COc1ccc(Nc2ccc([N+](=O)[O-])cn2)cc1 | 10.8
